These are yes or no findings as the source states them, for the method shown. In cells and extracts the contact can be indirect. Some binding calls cover weakened binding; strength is not graded here. For part of these data: Sequences can lack the tags named with a protein.
How the values were obtained:
[1] = target: T1, SNX4 198-451Δ with myc and 6xHis tags (UniProt O95219); experiment: co-IP; anti-myc (9E10) immunoprecipitation from lysate of HEK293 cells transfected with myc-tagged SNX4 constructs, 3-4 h at 4°C, Western blot
T1 sequence: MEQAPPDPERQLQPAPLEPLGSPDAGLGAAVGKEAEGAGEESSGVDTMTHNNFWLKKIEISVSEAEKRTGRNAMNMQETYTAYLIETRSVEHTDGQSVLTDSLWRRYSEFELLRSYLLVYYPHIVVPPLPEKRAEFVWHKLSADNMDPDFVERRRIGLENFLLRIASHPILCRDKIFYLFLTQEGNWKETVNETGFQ

The chains behind the UniProt entries cited, without tags or fusion partners.
UniProt Q00610: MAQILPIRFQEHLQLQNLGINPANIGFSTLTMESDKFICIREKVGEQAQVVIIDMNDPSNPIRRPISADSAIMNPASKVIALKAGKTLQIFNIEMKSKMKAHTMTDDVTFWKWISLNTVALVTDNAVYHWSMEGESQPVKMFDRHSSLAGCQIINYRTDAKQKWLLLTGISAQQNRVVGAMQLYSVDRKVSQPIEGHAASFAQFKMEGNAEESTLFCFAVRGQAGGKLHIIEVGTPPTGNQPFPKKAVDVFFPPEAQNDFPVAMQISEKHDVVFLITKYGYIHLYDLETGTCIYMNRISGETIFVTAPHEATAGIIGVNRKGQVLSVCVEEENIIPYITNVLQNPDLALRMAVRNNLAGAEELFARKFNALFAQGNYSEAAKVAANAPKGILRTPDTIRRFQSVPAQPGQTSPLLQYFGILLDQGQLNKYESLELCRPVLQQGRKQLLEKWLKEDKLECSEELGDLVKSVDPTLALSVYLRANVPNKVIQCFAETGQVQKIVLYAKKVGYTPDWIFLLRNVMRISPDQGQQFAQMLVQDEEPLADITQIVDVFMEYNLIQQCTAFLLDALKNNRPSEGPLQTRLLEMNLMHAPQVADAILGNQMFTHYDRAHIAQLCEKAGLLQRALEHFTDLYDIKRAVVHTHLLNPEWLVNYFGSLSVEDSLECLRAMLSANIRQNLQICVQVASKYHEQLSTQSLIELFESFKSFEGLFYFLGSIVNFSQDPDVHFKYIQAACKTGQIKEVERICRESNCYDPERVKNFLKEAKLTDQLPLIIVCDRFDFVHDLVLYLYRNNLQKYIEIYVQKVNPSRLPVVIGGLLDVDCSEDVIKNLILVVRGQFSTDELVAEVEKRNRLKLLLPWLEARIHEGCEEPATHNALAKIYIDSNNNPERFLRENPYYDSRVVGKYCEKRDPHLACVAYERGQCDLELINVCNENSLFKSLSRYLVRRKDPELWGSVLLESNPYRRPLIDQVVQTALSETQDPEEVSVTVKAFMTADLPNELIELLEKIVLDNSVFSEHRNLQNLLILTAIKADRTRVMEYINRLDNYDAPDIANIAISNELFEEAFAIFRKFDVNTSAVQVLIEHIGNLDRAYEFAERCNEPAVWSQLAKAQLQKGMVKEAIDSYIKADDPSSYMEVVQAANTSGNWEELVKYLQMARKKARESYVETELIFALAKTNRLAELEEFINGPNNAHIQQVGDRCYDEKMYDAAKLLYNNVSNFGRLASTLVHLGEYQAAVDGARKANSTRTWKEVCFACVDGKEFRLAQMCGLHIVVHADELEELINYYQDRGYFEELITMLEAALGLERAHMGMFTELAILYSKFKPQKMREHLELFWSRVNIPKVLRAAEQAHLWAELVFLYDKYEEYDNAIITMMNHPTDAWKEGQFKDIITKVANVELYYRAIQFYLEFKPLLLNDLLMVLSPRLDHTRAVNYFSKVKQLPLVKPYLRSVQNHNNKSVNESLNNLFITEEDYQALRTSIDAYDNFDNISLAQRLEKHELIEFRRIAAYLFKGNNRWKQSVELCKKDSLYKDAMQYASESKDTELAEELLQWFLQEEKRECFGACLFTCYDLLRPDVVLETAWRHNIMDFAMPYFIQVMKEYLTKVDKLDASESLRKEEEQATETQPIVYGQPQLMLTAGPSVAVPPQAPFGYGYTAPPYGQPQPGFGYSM

[2] = target: T2, SNX4 wt with myc and 6xHis tags (UniProt O95219); experiment: as above
T2 sequence: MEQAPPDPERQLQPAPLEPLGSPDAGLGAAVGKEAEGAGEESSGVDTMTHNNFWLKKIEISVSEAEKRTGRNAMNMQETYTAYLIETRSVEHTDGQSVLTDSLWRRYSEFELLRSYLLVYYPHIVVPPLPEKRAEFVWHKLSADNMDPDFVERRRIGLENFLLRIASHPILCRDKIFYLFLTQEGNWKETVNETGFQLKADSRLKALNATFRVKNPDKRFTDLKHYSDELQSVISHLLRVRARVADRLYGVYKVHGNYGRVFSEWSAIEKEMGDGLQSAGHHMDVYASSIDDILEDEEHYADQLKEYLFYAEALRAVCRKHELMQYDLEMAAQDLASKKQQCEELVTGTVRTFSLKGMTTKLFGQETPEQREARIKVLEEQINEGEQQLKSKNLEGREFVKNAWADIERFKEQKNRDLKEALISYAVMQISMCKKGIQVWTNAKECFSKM

[3] = target: T3, Sorting nexin 4 (SNX4), endogenous (human (endogenous in HEK293)) (UniProt O95219); experiment: condition: only cells treated with 100 nM wortmannin for 30 min; co-IP; as a1, but HEK293 cells treated with 100 nM wortmannin for 30 min before lysis; anti-SNX4 immunoprecipitation overnight at 4°C
T3 sequence: T2 sequence

[4] = target: T3, Sorting nexin 4 (SNX4), endogenous (human (endogenous in HEK293)); experiment: co-IP; anti-SNX4 (E-18) on Protein A Sepharose, HEK293 lysate (0.1 M NaCl, 10 mM Na2HPO4 pH 7.4, 1 mM EDTA, 1% Triton X-100), overnight at 4°C, Western blot; cells untreated, or transfected with control, SNX4 or CHC siRNA, or treated with nocodazole for 30 min
[5] = target: T4, GST-SNX4 105-116 (UniProt O95219); experiment: pull-down; GST proteins on Glutathione Sepharose beads with 200 µl HEK293 cell lysate, overnight at 4°C, washed with 0.1% Triton X-100 in PBS, Western blot; only the target purified
T4 sequence: RRYSEFELLRSY

[6] = target: T5, GST-SNX4 105-116 F110A (UniProt O95219); experiment: as above
T5 sequence: RRYSEAELLRSY

[7] = target: T6, GST-SNX4 105-116 E109A (UniProt O95219); experiment: as above
T6 sequence: RRYSAFELLRSY

[8] = target: T7, GST-SNX4 105-116 L113A (UniProt O95219); experiment: as above
T7 sequence: RRYSEFELARSY

[9] = target: T8, GST-SNX4 105-116 L112A (UniProt O95219); experiment: as above
T8 sequence: RRYSEFEALRSY

[10] = target: T9, GST-Hrs(707-775) (UniProt Q99LI8); experiment: as above
T9 sequence: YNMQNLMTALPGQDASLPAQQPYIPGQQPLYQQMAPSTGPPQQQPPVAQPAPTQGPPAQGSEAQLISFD

[11] = target: T10, GST-SNX4 105-116 E111A (UniProt O95219); experiment: as above
T10 sequence: RRYSEFALLRSY

[12] = target: T11, GST-SNX4 101-132 (UniProt O95219); experiment: as above
T11 sequence: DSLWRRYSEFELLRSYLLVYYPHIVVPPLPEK

In the case of “clathrin heavy chain (CHC), endogenous (from UniProt Q00610 1-1675)”, the binding [1] is reported as “binds”, the binding [2] is reported as “binds” and the binding [3] is reported as “no binding”. For the same substance, the binding [4] was “binds”, the binding [5] was “binds” and the binding [6] was “no binding”. For the same substance, the binding [7] was “binds”, the binding [8] was “no binding” and the binding [9] was “no binding”. For the same substance, the binding [10] was “binds”, the binding [11] was “no binding” and the binding [12] was “binds”.
